The list shows a part of the results.

For this test, the system named is T1, C. trachomatis L2/434/Bu expressing GFP (CTL2-GFP).
T1 construct: L2/434/Bu GFP intracellular growth in HeLa cells
Set-up: species or system HeLa; C. trachomatis total inclusion area by high-content imaging, normalised to DMSO. Conditions: total inclusion area; 28.5 h, 10 µM; inhibitor. Put shortly:
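Post-fluorescence-read fixation, DNA staining with Hoechst and high-content imaging; GFP inclusion area and number per well, and nuclei counts, used as proxies for bacterial growth and host viability.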
Consider `COc1ccc(CNC(=O)c2cnc(-c3ccc(F)cc3)c(-c3ccc(C(C)=O)s3)c2)cc1` [CBK036577], for which the “% of control remaining” value stood at 91.2999. Turning to `CC1CCN(S(=O)(=O)c2ccc3c(c2)oc(=O)c2cc(S(=O)(=O)N4CCC(C)CC4)ccc23)CC1` [CBK266314], the “% of control remaining” value turned out to be 134.084. On to `CC(=O)Nc1cccc(CN(C)C(CCO)c2ccccc2)c1` (stereo not shown) [CBK305127], for which the “% of control remaining” value is listed as 47.8137. The result for `CCCC(=O)c1ccc(S(=O)(=O)N2CCN(CCCOC3CCCCO3)CC2)cc1` (stereo not shown) [CBK062858] reads 76.2469; that for `O=S(=O)(Nc1nc2c(s1)CCCC2)c1cc(Cl)ccc1Cl` [CBK096578], 102.456. For `CC(=O)N(C)c1ncc(Br)cc1C(=O)NCc1ccc2c(c1)CCO2` [CBK076544] the value was 104.2.

As for `Cc1ccc(Cl)c(OC(C)C(=O)NCC2(N3CCOCC3)CCSC2)c1` (stereo not shown) [CBK305681], the “% of control remaining” value came out at 38.8562. The result for `CC12CCC(C(=O)O)(c3nc4cc([N+](=O)[O-])ccc4nc31)C2(C)C` (stereo not shown) [CBK266577K] reads 90.9515. As for `COc1ccc(CNc2ccc(C3c4ccsc4CCN3C(C)=O)cc2)cc1` (stereo not shown) [CBK286444], the “% of control remaining” value is recorded as 106.157. The result for `COc1ccc(-c2noc(CSc3nnc(-c4cccs4)n3-c3ccccc3)n2)cc1` [CBK268390] reads 75.0907; that for `Cc1ccsc1C(=O)N1CCC(n2cc(C(C)(C)O)nn2)CC1` [CBK307069], 89.4837. On to `O=C(O)CSc1nc2ccc(NC(=O)COc3ccc(Cl)cc3)cc2s1` [CBK299773], for which the “% of control remaining” value came to 122.136. For `CSc1nc(C#N)c(N)c(SC2C=CCCC2)n1` (stereo not shown) [CBK021817] the value was 85.2977. For `O=C(O)c1ccc(CNC(=S)Nc2ccc([N+](=O)[O-])cc2)cc1` [CBK267037] the value was 103.406; for `COCCc1nsc(N2CCC(Oc3cccnc3N(C)C)C2)n1` (stereo not shown) [CBK305418], 51.7235; for `COc1ccc(-c2nc(NC(=O)c3ccccn3)cnc2-c2cccc(C(F)(F)F)c2)cc1` [CBK036785], 79.9569. Take `Clc1cncc(N2CCCC2)n1` [CBK083595]: the “% of control remaining” value worked out at 87.292. In the case of `C[C@]12CN(C3CCSC3)C[C@H]1C(=O)Nc1ccccc1C(=O)N2` (stereo partly shown) [CBK284788], the “% of control remaining” value is listed as 105.716. For the compound `CC(C)CNS(=O)(=O)c1ccc(N2CCCC2=O)cc1` [CBK304981], the “% of control remaining” value amounted to 41.7957.

As to `Oc1ccc2ccccc2c1/C=N/c1ccc(-c2cc(-c3ccc(/N=C/c4c(O)ccc5ccccc45)cc3)ncn2)cc1` [CBK261621], the “% of control remaining” value worked out at 84.6114. For `CCN(CCN(C)C)Cc1ccc(F)cc1F` [CBK261877], the “% of control remaining” value was found to be 98.2976. Take `Cn1c(=O)c2c(O)cc(=O)n(Cc3ccccc3)c2n(C)c1=O` [CBK291245]: the “% of control remaining” value came to 111.949.

For `CC(c1ccncc1)N1Cc2cccc(C(=O)O)c2C1=O` (stereo not shown) [CBK291137], the “% of control remaining” value was found to be 89.6543.

With `CC(=O)N1CCn2nc(C(=O)N(CCO)Cc3ccccc3)cc2C1` [CBK306769], the “% of control remaining” value is 74.5638. For `COC(=O)Cn1c(=O)sc2cccc(Cl)c21` [CBK026076] the value was 44.8093. Regarding `Cc1ccccc1Nc1nc(N)nc(CN2CCOC3CCCC32)n1` (stereo not shown) [CBK305181], the “% of control remaining” value was determined as 10.3873. The result for `O=[N+]([O-])c1ccc(CN2CCN(c3nccnc3Oc3ccc(F)cc3)CC2)cc1` [CBK083015T] reads 96.5814; that for `COc1ccccc1NC(=O)CCSc1nc(C)cc(C)n1` [CBK266371], 93.7177; that for `COc1ccc(S(=O)(=O)NCCN2CCOCC2)c(Cl)c1Cl` [CBK269999], 84.7815. The result for `CN(C)c1ccc(-c2nnnn2[C@H]2CO[C@H]3[C@@H]2OC[C@H]3O)cc1` [CBK289481] reads 78.4791.

For the compound `CC(=O)N1CCC[C@@H]1C(=O)N1CC[C@@H]2NC(=O)[C@H](Cc3ccccc3)NC(=O)C3(C/C=C/C[C@@H]2C1)CCOCC3` [CBK292195], the “% of control remaining” value is recorded as 84.4588.

Turning to `COc1ccc(CCNC(=O)NS(=O)(=O)c2ccc(C)cc2)cc1OC` [CBK300510], the “% of control remaining” value is 46.7579. The result for `FC(F)(F)c1cccc(OCCN2CCNCC2)n1` [CBK113291] reads 104.362; that for `OC1(CCCN2CCOCC2)C2CCCC1CN(Cc1ccccc1)C2` (stereo not shown) [CBK025076C], 31.5966. Consider `COc1cccc(OCCCCCc2c(C)n[nH]c2C)c1` [CBK261805], for which the “% of control remaining” value is on record as 89.1559. For `O=C(c1ccccc1-c1ccccc1)N1CCn2cnnc2C1` [CBK283789] the value was 110.515; for `COc1ccccc1CNCCNC(=O)OC(C)(C)C` [CBK056694], 79.6311; for `CCC(C)c1ccc(NC(=S)NCCn2cc(Cl)cn2)cc1` (stereo not shown) [CBK267101], 85.5575. For `CCN1CCN(c2c(Cl)cccc2NC(=O)c2ccc(N3CCOCC3)c([N+](=O)[O-])c2)CC1` [CBK269066] the value was 108.956; for `CCCC(=O)N[C@@H](C)Cn1c(C(F)(F)F)cc2cccnc21` [CBK283232], 70.64. For the compound `C/C(Nc1ccc(S(=O)(=O)Nc2nccc(C)n2)cc1)=C1\C(=O)N(c2nc3ccccc3s2)N=C1C(F)(F)F` [CBK263002], the “% of control remaining” value is listed as 24.472. For `CC[C@H]1CN(C(=O)NC(C)C)CC[C@H]1CC(=O)Nc1nccs1` [CBK288774] the value was 93.2483.

For the compound `COc1ccc(C)cc1-n1ccc(C(=O)NC(C)(C)C(N)=O)n1` [CBK305789], the “% of control remaining” value came to 37.8308. For `CCCC(=O)c1ccc(S(=O)(=O)N2CCCN(Cc3ccc(F)cc3Cl)CC2)cc1` [CBK062917] the value was 55.8095; for `Clc1ccc(-c2csc3ncnc(SCc4ccco4)c23)cc1` [CBK265972], 81.934; for `Oc1ccc2cc(-c3cccc(C(F)(F)F)c3)cnc2n1` [CBK081285], 25.8188. For `COc1cccc(Nc2c(C(=O)N3CCCCC3)cnc3nc(C)ccc23)c1` [CBK287817], the “% of control remaining” value turned out to be 114.644. On to `CCOC(=O)c1csc(C2CCCN2C(=O)c2ccoc2C)n1` (stereo not shown) [CBK304080], for which the “% of control remaining” value is 68.7957. Take `Clc1cccc(-c2cncc(NCc3ccc4c(c3)OCO4)n2)c1` [CBK065323]: the “% of control remaining” value was determined as 64.2379.

In the case of `O=C(NCCN1CCOCC1)C1CC2CCC1C2` (stereo not shown) [CBK026764], the “% of control remaining” value was 106.579. For `CCCC/C=C/c1cn2ccnc2c(NCCc2ccccn2)n1` [CBK066275] the value was 100.308.

`COc1ccccc1C1(O)CC2CCC(C1)N2` (stereo not shown) [CBK281369]: the “% of control remaining” value stood at 98.7222. For `CCn1c2ccccc2n2c(SCCC(=O)O)nnc12` [CBK267135] the value was 127.754. For `CCCc1[nH]n(CCc2ccccc2)c(=O)c1Cc1c(Cl)cccc1Cl` [CBK112499] the value was 85.1872. For `C=CCn1cc(CN2CCc3nc(C)[nH]c(=O)c3C2)c2ccccc21` [CBK282376], the “% of control remaining” value turned out to be 99.3148. For `CN1CCN(CCP(=O)(c2ccccc2)c2ccccc2)CC1` [CBK020260] the value was 100.165. The result for `CCN(CC)CCCN1C(=O)CSC1c1ccc2c(c1)OCO2` (stereo not shown) [CBK263482C] reads 61.1957. For `CCn1cc(C(=O)N2CCCC2c2nccs2)c(=O)c2ccc(C)nc21` (stereo not shown) [CBK307171] the value was 69.9678. In the case of `FC(F)(F)c1ccc(-c2c[nH]c([C@@H]3COCCN3Cc3csnn3)n2)cc1` [CBK289318], the “% of control remaining” value worked out at 107.069. The result for `O=P(O)(CCc1ccncc1)CN1CCOCC1` [CBK262317] reads 110.958; that for `Cc1ccc(S(=O)(=O)CC(CN2CCOCC2)N2CCOCC2)cc1` (stereo not shown) [CBK264590], 104.161; that for `N#C/C(=C\c1ccc(O)cc1)c1nc(-c2ccc3c(c2)OCO3)cs1` [CBK262370], 38.6691. The result for `O=C(NCCc1ccsc1)N1CCN(c2ccncc2)CC1` [CBK305595] reads 41.5462. The result for `COc1ccccc1C(NC(=O)C1CCN(C(=O)c2cccc(Cl)c2)CC1)c1ccccn1` (stereo not shown) [CBK059637] reads 142.766; that for `C=CCSc1nnc(CSc2nc3sc4c(c3c(=O)[nH]2)CCCC4)n1-c1ccccc1` [CBK263341], 118.735; that for `O=C(O)c1cc(-c2ccc(OC(F)F)cc2)[nH]n1` [CBK288022], 65.6544. Take `COc1ccc(-c2ccc3c(c2)C(=O)N2CCN(C(=O)CC(C)(C)C)C[C@@H]2C(=O)N3)cc1` [CBK289584]: the “% of control remaining” value came out at 109.872. As to `CS(=O)(=O)N[C@H]1CO[C@H]2[C@@H]1OC[C@H]2OC(=O)Nc1cccc2ccccc12` [CBK289469], the “% of control remaining” value turned out to be 95.3927. With `COc1cc2c(cc1OC)/C(=C(\C(=O)Nc1ccccc1)C(=O)N1CCCCC1)NC(C)(C)C2` [CBK087103], the “% of control remaining” value was determined as 107.685.

As for `O=C(O)CCN1CCN(S(=O)(=O)c2cccc([N+](=O)[O-])c2)CC1` [CBK268819], the “% of control remaining” value worked out at 104.501. For the compound `CCOC(=O)c1nnc(-c2cccs2)nc1NC1CCCCC1` [CBK018110], the “% of control remaining” value is 84.7842. The result for `Cn1c(=O)oc2ccc(C(=O)CSc3nnnn3-c3ccccc3)cc21` [CBK300488] reads 83.7866; that for `Cc1ccc(CSCCNS(=O)(=O)c2ccc([N+](=O)[O-])cc2)cc1` [CBK268496], 93.7134; that for `COc1nccnc1N1CCN(Cc2ccc([N+](=O)[O-])cc2)CC1` [CBK084217], 70.3938. The result for `c1cncc(CN2CCC[C@@H]2CN2CCCC2)c1` [CBK149101C] reads 92.1924. For the compound `CCc1nnc(NC(=O)CSc2nc3c([nH]2)c(=O)n(C)c(=O)n3C)s1` [CBK025840], the “% of control remaining” value was found to be 56.1551. The result for `CN1CCC(NC(=O)c2cccc(OCC(=O)N3CCCCC3)c2)C1=O` (stereo not shown) [CBK307281] reads 58.9724; that for `CC(=O)OCc1c(C)cc(C)c(CN(C)C(C)c2ccncn2)c1C` (stereo not shown) [CBK307315], 72.874; that for `CC(C)NC(=O)NC[C@H]1C[C@@H]2CCN1C[C@@H]2c1cc(-c2cccs2)nn1C` [CBK289103], 94.1495.
